Results from publication PMC11006472.
No constants are given. Whether binding was seen depends on the method and setting. For some of these results: Binding seen in cells or lysates may run through a third protein. Some results given as binding are weak or reduced against the parent protein; the word gives no strength. For some of these results: Sequences can lack the tags named with a protein.

Protein sequences, listed by entry. Tags and fused reporters are not part of them.
UniProt Q5J8M3: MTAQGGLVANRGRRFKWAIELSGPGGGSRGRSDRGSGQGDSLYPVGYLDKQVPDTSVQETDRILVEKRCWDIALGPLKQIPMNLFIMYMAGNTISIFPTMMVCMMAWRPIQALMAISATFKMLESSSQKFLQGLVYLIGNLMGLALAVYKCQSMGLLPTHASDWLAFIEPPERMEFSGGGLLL
UniProt P21796: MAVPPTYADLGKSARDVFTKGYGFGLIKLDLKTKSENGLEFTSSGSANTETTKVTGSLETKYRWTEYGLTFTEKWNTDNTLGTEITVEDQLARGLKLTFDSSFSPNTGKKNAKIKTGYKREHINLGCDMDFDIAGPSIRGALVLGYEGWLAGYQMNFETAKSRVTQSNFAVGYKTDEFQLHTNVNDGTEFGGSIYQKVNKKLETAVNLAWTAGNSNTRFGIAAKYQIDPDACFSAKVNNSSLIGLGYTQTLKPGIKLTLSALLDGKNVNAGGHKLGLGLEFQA

Tests used:
[1] = target: T1, EMC7-smbit (human) (UniProt Q9NPA0); test: split reporter; NanoBiT in HEK293T cells, 50 ng Lgbit plasmid and 50 ng smbit plasmid per well, C-terminal fusions, luminescence with furimazine 24 h after transfection
T1 sequence: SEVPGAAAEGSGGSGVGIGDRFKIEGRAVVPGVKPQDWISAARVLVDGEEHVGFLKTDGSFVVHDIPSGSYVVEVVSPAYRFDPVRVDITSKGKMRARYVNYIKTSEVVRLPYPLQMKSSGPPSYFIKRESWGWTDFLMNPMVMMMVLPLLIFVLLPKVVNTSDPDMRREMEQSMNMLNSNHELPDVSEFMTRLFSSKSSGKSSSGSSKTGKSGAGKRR

[2] = target: T2, EMC7^1–156-smbit (human) (UniProt Q9NPA0); test: as above
T2 sequence: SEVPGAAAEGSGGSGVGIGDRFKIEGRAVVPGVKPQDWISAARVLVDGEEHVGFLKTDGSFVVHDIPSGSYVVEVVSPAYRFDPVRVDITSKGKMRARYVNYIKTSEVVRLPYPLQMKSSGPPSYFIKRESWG

[3] = target: T3, EMC7-VC (human) (UniProt Q9NPA0); test: split reporter; BiFC with Venus VN (1–154) and VC (155–238) fused at the C termini, co-transfected 293T cells, imaged after 24 h (STED), mitochondria stained with MitoTracker
T3 sequence: T1 sequence

[4] = target: T4, EMC3, subunit of human EMC (human (endogenous in Expi293F)) (UniProt Q9P0I2); test: cryo-EM structure; VDAC1-bound class of the purified human EMC sample in digitonin (complex co-purified from cells), single-particle cryo-EM, 3.32 Å
T4 sequence: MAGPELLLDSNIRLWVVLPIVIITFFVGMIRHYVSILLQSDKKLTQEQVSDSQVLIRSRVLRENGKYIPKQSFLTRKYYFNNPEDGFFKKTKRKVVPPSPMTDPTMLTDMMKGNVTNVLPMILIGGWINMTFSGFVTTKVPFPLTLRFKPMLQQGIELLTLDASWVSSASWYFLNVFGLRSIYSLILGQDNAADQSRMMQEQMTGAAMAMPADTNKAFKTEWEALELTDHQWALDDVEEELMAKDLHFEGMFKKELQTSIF

[5] = target: EMC4, subunit of human EMC (human (endogenous in Expi293F)) (UniProt Q5J8M3); test: as above
[6] = target: T5, EMC7, subunit of human EMC (endogenous) (human (endogenous in Expi293F)) (UniProt Q9NPA0); test: as above
T5 sequence: T1 sequence

[7] = target: T6, wild type EMC7 fused with a 3xFlag tag (human) (UniProt Q9NPA0); test: co-IP; one-step purification on Flag agarose beads from 1% DDM lysate of EMC7 knockout Expi293F cells expressing 3xFlag EMC7 WT or EMC7^1–156, washed in 0.01% DDM EMC buffer, Flag peptide elution; silver-stained SDS-PAGE, Western blot, negative-stain EM
T6 sequence: T1 sequence

Substance: VDAC1-Lgbit (from UniProt P21796 1-283)
- binding [1]: binds
- binding [2]: no binding

Substance: VDAC1-VN (from UniProt P21796 1-283)
- binding [3]: binds

Substance: voltage-dependent anion channel 1 (VDAC1), endogenous (from UniProt P21796 1-283)
- binding [4]: binds
- binding [5]: binds
- binding [6]: binds
- binding [7]: binds
